From ChEMBL document CHEMBL4888484, “Replenishing the malaria drug discovery pipeline: Screening and hit evaluation of the MMV Hit Generation Library 1 (HGL1) against asexual blood stage Plasmodium falciparum ,using a nano luciferase reporter read-out” (2022)
Where “and” joins values, the source holds several entries; their conditions need not be identical. Identical values can stand only once. Among all 150,000 compounds or so, about 540 (0.36%) showed an effect of 50% or more. Some of the results follow.

Test system: Plasmodium falciparum
Assay: Primary screen in NF54 nanoGlo assay, in single point, at 2uM, 72h; a lower Z score goes with more inhibition
Type: functional, Erythrocyte
Conditions: timepoint 72 hour

SMILES | % Inhibition [%] | Z score | % Inhibition (2 µM)
CC(C(=O)N1CC(O)(c2nccn2C)C1)=C1CCCC1 | -5 | 0.8 | 
CN(C[C@H]1CCCN1C(=O)c1ccc(Cl)c(N)c1Cl)C(=O)OC(C)(C)C | -9 | 0.96 | 
Cc1cc(N[C@H]2CCc3nc(C)nn3C2)nc(N)n1 | -2 | 0.33 | 
COc1ccc(C)cc1C(=O)NCC1CCN(Cc2c[nH]cn2)CC1 | -7 | 0.87 | 
O=C(NCc1cc(C2CC2)[nH]n1)NCC1(O)CCCCC1 | -15 | 1.42 | 
Cc1cccc(-c2noc(N3CCOCC3)c2CN(Cc2ccccc2)C(=O)c2ccc(Cl)cc2)c1 | -2 | 0.17 | 
COc1ccc(CC(=O)NCc2ccc3c(c2)N(C(=O)c2ccccc2)[C@@H](C)C3)cc1OC | 13 | -1.5 | 
CN1CCCC1CNC(=O)C1CCCN(C(=O)c2ccc3[nH]ncc3c2)C1 (configuration not stated) | -12 | 2.41 | 
CN(C(=O)CCc1ccc2c(c1)OCO2)[C@H]1CCS(=O)(=O)C1 | -11 | 1 | 
COc1ccc(S(=O)(=O)C2CN(C(=O)c3ccsc3)C2)cc1 | -18 | 2.32 | 
CCC(C(=O)N1CCc2cc(OC)c(OC)cc2C1c1ccc(OC)c(OC)c1)c1ccccc1 (configuration not stated) | 0 | 0.08 | 
CN(Cc1ccc(-n2cccn2)cc1)[C@H]1CCC(=O)N(Cc2ccc(F)c(F)c2)CC1 | -8 | 0.9 | 
Cc1noc(C)c1-c1ccc(S(=O)(=O)N(C)Cc2ncon2)s1 | -13 | 1.85 | 
Cc1nn(C)c(C)c1CCC(=O)NCc1nc2cc(C(F)(F)F)ccc2n1C | 5 | -1.02 | 
Cc1c(-c2cc(C(F)(F)F)n(CCC#N)n2)cnn1C | 1 | -0.11 | 
OC[C@H](Cc1ccc(O)cc1)NC1CCCC(C(F)(F)F)C1 (some centres not stated) | -2 | 0.21 | 
CN(C)c1cc(C(C)(C)C)c(O)c(C(C)(C)C)c1 |  |  | -4% and 3%
Cc1noc(C)c1CC(=O)Nc1ccc(Cl)cn1 | 4 | -0.55 | 
Cc1ccc(-c2nccn2Cc2cn(C)nc2C)cc1C | -15 | 2.19 | 
O=C(NCc1cccnc1)[C@@H]1[C@@H]2C=C[C@@]3(CN(Cc4ccccc4Cl)C(=O)[C@H]13)O2 | -14 | 2.36 | 
Cc1cc(=O)n2nc(-c3cccc4ccccc34)nc2[nH]1 | 30 | -3.41 | 

SMILES | % Inhibition [%] | Z score | % Inhibition (2 µM)
COc1ccc(-n2c(=O)c(C(=O)NCC3CC3)c(O)c3cccnc32)cc1 | -17 | 2.22 | 
COc1ccc(S(=O)(=O)N2C[C@@H]3CCCN3c3cc(C(F)(F)F)ccc32)cc1 | 37 | -4.79 | 
COc1ccc(COC(=O)c2ccc(C(F)(F)F)nc2)cn1 | -13 | 1.66 | 
CC[C@@H](C(=O)NCc1ccc(C)cc1)n1cc(-c2nc(C3CC3)no2)ccc1=O | -14 | 2.61 | 
COc1ccc(C(=O)O)nc1-c1cccc(C(=O)N2C[C@H]3CCC[C@@H](C3)C2)c1 | -2 | 0.27 | 
Cc1ccc([C@H](CNC(=O)C(C)(C)n2cccn2)N2CCCC2)o1 | -2 | 0.24 | 
O=C(CCCc1ccccc1)Nc1cnoc1 | -8 | 1.28 | 
CCc1c(C)nc(N)nc1NCC(=O)NC1CC1 | 1 | -0.28 | 
O=C(Nc1cccc(-c2cnc[nH]2)c1)c1cccs1 | -13 | 1.74 | 
COCCNC(=O)c1nnc(-c2oc3ccc(C)cc3c2C)o1 | -12 | 1.92 | 
Cc1cc(C)nc(-c2ccccc2N(C)C)n1 | -14 | 1.84 | 
Cn1nccc1[C@H](O)c1cc2n(n1)CCCN(C1CCCCCC1)C2 | 0 | -0.04 | 
CCOCCC1(C(=O)Nc2nc(COC)cs2)CCCC1 | -10 | 1.36 | 
COc1ccc([C@@H]2CCCN2C(=O)c2cnn(C)c2C)cc1OC | -3 | 0.28 | 
COC(=O)C1(N)CC(COCc2ccccc2)C1 (configuration not stated) | 20 | -2.38 | 
COCCn1nc2n(c1=O)CC[C@@H](CC(=O)Nc1ccccc1CCc1ccccn1)CC2 | -3 | 0.45 | 
COc1ccccc1-c1c(C)nn2c(N3CCN(c4ccc(Cl)cc4)CC3)cc(C)nc12 | -1 | 0.16 | 
CCCn1nc(-c2ccc(Cl)s2)cc1C(=O)NCCc1ccccc1 | 6 | -0.62 | 
CC(C)Oc1ccc(C(=O)N2CC[C@@H](c3ccccc3)S(=O)(=O)CC2)cc1 | -9 | 1.47 | 
CCOc1ccc(Br)cc1C#N | -7 | 0.97 | 
Cc1cc(CN2CCN(Cc3ccnc(C)c3)c3ccc(O)cc3C2)ccn1 | -6 | 1.07 | 

SMILES | % Inhibition [%] | Z score | % Inhibition (2 µM)
O=C(CN1CN(c2ccccc2)C2(CCN(C(=O)c3cccc(C(F)(F)F)c3)CC2)C1=O)Nc1ccccc1 | 20 | -3.59 | 
CC(C)Cc1cc(CNC(=O)[C@H]2C[C@H]3C=C[C@@H]2C3)no1 | 6 | -0.79 | 
N#CCOC(=O)c1ccc(C(N)=O)cc1 | -10 | 0.84 | 
COc1ccc2c(c1Cl)[C@@H](NCc1nonc1C)CCC2 | 1 | -0.24 | 
Cc1ccccc1C(=O)Nc1ccccc1-c1nc2ccccc2[nH]c1=O | -18 | 3.47 | 
Cc1ccc(N(CC#N)c2ncn[nH]2)c(C)c1 | -26 | 3.09 | 
CC(C)(C)c1nc(CN2CCN(C(=O)c3c[nH]nn3)CC2)cs1 | 1 | -0.08 | 
Cn1cc(-c2cc(CN3CCc4ccccc4[C@@H]3CO)on2)cn1 | -2 | 0.22 | 
Cn1nnc2cc(S(=O)(=O)N3CCCC3(C)C)ccc21 | -9 | 0.79 | 
CN(C(=O)OC(C)(C)C)C1(C(=O)NCCc2cncn2C)CCC1 | -7 | 1.47 | 
CCCN(CC1CC1)C(=O)[C@@H](NC(N)=O)C(C)(C)C | -13 | 2.55 | 
C=C(C)C[C@H](C)C(=O)Nc1ccn(C)c(=O)n1 | -13 | 1.79 | 
CCOC(=O)Cc1csc(NC(=O)c2cnc(O[C@H]3CCOC3)c(Cl)c2)n1 | 2 | -0.42 | 
CC1CCC(NC(=O)Cc2c[nH]c3ccccc23)CC1 (configuration not stated) | 2 | -0.24 | 
Cc1nc(CCNC(=O)[C@@H]2Cc3ccccc3S(=O)(=O)N2)nc2c1CCC2 | 1 | -0.25 | 
O=S(=O)(N1CCOCC1)N1CC[C@H](n2cnc3ccccc32)C1 | -18 | 2.33 | 
COc1ccc(CCC(=O)NC2(c3cccs3)CCOCC2)cc1 | 2 | -0.31 | 
Oc1cc(CC[C@H]2CCCCN2)cc(-c2cnc3ccccc3n2)c1 | 59 | -7.37 | 
CCc1cc(NC(=O)Cc2ccc(OC)cc2)nc(C)n1 | -6 | 0.8 | 
COc1cccc(OC)c1OCC1CN(CC(O)CN2CCOCC2)CCO1 (configuration not stated) | 6 | -0.63 | 
Cc1nc(N)nc(C)c1CC(=O)NC(c1ccccn1)[C@H]1C[C@@H](O)C1 (some centres not stated) | -3 | 0.35 | 

SMILES | % Inhibition [%] | Z score | % Inhibition (2 µM)
CC(C)Cc1cc(C(=O)N[C@]2(C(=O)O)CCCc3ccccc32)on1 | 0 | -0.01 | 
C/C(=C\c1nsc(Nc2ccccc2)n1)NCCc1ccccc1 | -5 | 0.71 | 
N#Cc1cccc(-c2c[nH]c(CNc3nc4cc(C(F)(F)F)ccc4s3)n2)c1 | 34 | -4.6 | 
Cc1nc2n(n1)C[C@@H](NS(C)(=O)=O)CC2 | 28 | -3.21 | 
CC(C)(C)c1ncc(C(=O)N2CCCN(CC(N)=O)CC2)s1 | -6 | 1.16 | 
Cc1cc(F)c(S(N)(=O)=O)c(NCCCN2CCNC(=O)C2)c1 | 3 | -0.52 | 
Cc1[nH][nH]c(=O)c1CC(=O)N[C@H]1CCC[C@H]1Cc1ccc(F)cc1 | -30 | 2.77 | 
Cc1nc2c(c(=O)n1C)CN(C(=O)Cc1c[nH]c3ccccc13)C2 | -14 | 1.5 | 
C=C(C)COc1ccc(C(=O)NCCNc2nc(C)cc(=O)[nH]2)cc1 | 13 | -1.65 | 
CCNC(=O)C1CC(c2ccc(F)cc2)NS(=O)(=O)N1C (configuration not stated) | -18 | 1.61 | 
Cc1ccc(-c2csc(NC(=O)c3csc(-c4nnc[nH]4)n3)n2)cc1 | -6 | 0.76 | 
CCC(c1ccccc1)C1CCCN1C(=O)Cc1csc(NC(=O)C(C)C)n1 (configuration not stated) | -2 | 0.36 | 
O=C(NCc1ccccc1F)[C@@H]1CCN(c2ccccc2Cc2ccccc2)C1=O | 10 | -1.51 | 
Cc1nc[nH]c1C(=O)NCC1CCN(Cc2ccoc2)CC1 | 10 | -1.06 | 
CCc1cc(N2CCc3nnc(Cc4cccnc4)n3CC2)n2nccc2n1 | -2 | 0.32 | 
O=C(Nc1ccc2c(c1)OCO2)N1Cc2cccnc2C1 | -4 | 0.59 | 
CCNC(=O)c1nn(CC2CC2)c2c1CN(Cc1ccco1)CC2 | -17 | 1.92 | 
CC(C)(C)CN1C[C@@H](C(=O)O)C[C@@H](C(=O)Nc2ccc(F)cc2)C1 | 3 | -0.49 | 
C[C@]1(O)C[C@@H](Nc2ccnc(C#N)c2)C1 | -2 | 0.36 | 
COc1cc(C)ccc1Oc1ccc(F)cc1NC(=O)N1CC(C)OC(C)C1 (configuration not stated) | -7 | 1.22 | 
c1ccc(C2=NOC(c3ccccc3)(c3ccccc3)C2)cc1 | -3 | 0.37 | 
